According to a collection of fitness landscapes (doi:10.1016/j.celrep.2020.107928):
The full ranking holds about 81,000 sequences; the median of “one-hybrid fitness for binding parS DNA” is about -0.17, and the highest 2% start at about 0.51. The list shows a part of the results.

B1: Caulobacter ParB omega fusion; a variant is named by its letters at X, in order, B8GW30 (parent)
chain: MESVVVGEPGMSEGRRGLGRGLSALLGEVDAAPAQAPGEQLGGSREAPIEILQRNPDQPRRTFREEDLEDLSNSIREKGVLQPILVRPSPDTAGEYQIVAGERAWRAAQRAGLKTVPIMVRELDDLAVLEIGIIENVQRADLNVLEEALSYKVLMEKFERTQENIAQTIGKSXSHVANXMRLLXLPDEVQSYLVSGELTAXHARAIAAAADPVALAKQIIEGGLSVRETEALARKAPNLSAGKSKGGRPPRVKDTDTQALESDLSSVLGLDVSIDHRGSTGTLTITYATLEQLDDLCNRLTRGI

Variants of: B1
Assay: one-hybrid fitness for binding parS DNA (scaled: cognate 1, non-cognate 0); higher = stronger binding
Conditions: with parS DNA site
How it was run: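 On M9-minus-histidine containing 0.1 mM IPTG and 5 mM 3-AT, E. coli USO cells with a HIS3 reporter, site 19 bp from the promoter, grew 48 hours at 37°C to select Caulobacter ParB libraries randomised at four specificity codons. Plasmids from before and after were Illumina-sequenced, with three replicate libraries pooled and variants under 10 reads left out. Fitness is the log change in variant-to-wild-type read ratio, rescaled against cognate and non-cognate.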

LDAG and LGQC cannot be ordered by “one-hybrid fitness for binding parS DNA” value: at most 0.2 for the first, at most 0.2 for the second.

DCHR and YHTN cannot be ordered by “one-hybrid fitness for binding parS DNA” value: at most 0.2 for the first, at most 0.2 for the second.

TTNW and RWTL cannot be ordered by “one-hybrid fitness for binding parS DNA” value: at most 0.2 for the first, at most 0.2 for the second.

WPCP and FATL cannot be ordered by “one-hybrid fitness for binding parS DNA” value: at most 0.2 for the first, at most 0.2 for the second.

TRDV and WTCG cannot be ordered by “one-hybrid fitness for binding parS DNA” value: at most 0.2 for the first, at most 0.2 for the second.

MRTW and RDLV cannot be ordered by “one-hybrid fitness for binding parS DNA” value: at most 0.2 for the first, at most 0.2 for the second.

SHSK and HKFY cannot be ordered by “one-hybrid fitness for binding parS DNA” value: at most 0.2 for the first, at most 0.2 for the second.

LVNY and PVGF cannot be ordered by “one-hybrid fitness for binding parS DNA” value: at most 0.2 for the first, at most 0.2 for the second.

LLIA and PGFY cannot be ordered by “one-hybrid fitness for binding parS DNA” value: at most 0.2 for the first, at most 0.2 for the second.

PKSF and IMKL cannot be ordered by “one-hybrid fitness for binding parS DNA” value: at most 0.2 for the first, at most 0.2 for the second.

NSSS and MMLR cannot be ordered by “one-hybrid fitness for binding parS DNA” value: at most 0.2 for the first, at most 0.2 for the second.

PTPY and RKKP cannot be ordered by “one-hybrid fitness for binding parS DNA” value: at most 0.2 for the first, at most 0.2 for the second.

WVTV and STDI cannot be ordered by “one-hybrid fitness for binding parS DNA” value: at most 0.2 for the first, at most 0.2 for the second.

RWGW and WNDR cannot be ordered by “one-hybrid fitness for binding parS DNA” value: at most 0.2 for the first, at most 0.2 for the second.

KRVA and YRIR cannot be ordered by “one-hybrid fitness for binding parS DNA” value: at most 0.2 for the first, at most 0.2 for the second.

AITP and DPVA cannot be ordered by “one-hybrid fitness for binding parS DNA” value: at most 0.2 for the first, at most 0.2 for the second.

ARHE and TTIC cannot be ordered by “one-hybrid fitness for binding parS DNA” value: at most 0.2 for the first, at most 0.2 for the second.

PTYF and TTMW cannot be ordered by “one-hybrid fitness for binding parS DNA” value: at most 0.2 for the first, at most 0.2 for the second.

TRGM and AARN cannot be ordered by “one-hybrid fitness for binding parS DNA” value: at most 0.2 for the first, at most 0.2 for the second.

HIAA and SLHE cannot be ordered by “one-hybrid fitness for binding parS DNA” value: at most 0.2 for the first, at most 0.2 for the second.

NAYM and KFYG cannot be ordered by “one-hybrid fitness for binding parS DNA” value: at most 0.2 for the first, at most 0.2 for the second.

ETPC and LYNG cannot be ordered by “one-hybrid fitness for binding parS DNA” value: at most 0.2 for the first, at most 0.2 for the second.

DNSG and INAI cannot be ordered by “one-hybrid fitness for binding parS DNA” value: at most 0.2 for the first, at most 0.2 for the second.

APHF and SIVC cannot be ordered by “one-hybrid fitness for binding parS DNA” value: at most 0.2 for the first, at most 0.2 for the second.

SVTA and WVCS cannot be ordered by “one-hybrid fitness for binding parS DNA” value: at most 0.2 for the first, at most 0.2 for the second.

MAHM and RLMK cannot be ordered by “one-hybrid fitness for binding parS DNA” value: at most 0.2 for the first, at most 0.2 for the second.

QCVN and QHRD cannot be ordered by “one-hybrid fitness for binding parS DNA” value: at most 0.2 for the first, at most 0.2 for the second.

DHKE and QRKM cannot be ordered by “one-hybrid fitness for binding parS DNA” value: at most 0.2 for the first, at most 0.2 for the second.

QQTP and EILC cannot be ordered by “one-hybrid fitness for binding parS DNA” value: at most 0.2 for the first, at most 0.2 for the second.

QAFV and TKNV cannot be ordered by “one-hybrid fitness for binding parS DNA” value: at most 0.2 for the first, at most 0.2 for the second.

First: YPPV
Second: RMFL
The “one-hybrid fitness for binding parS DNA” value of the first is lower: at most 0.2 for the first, 0.206 for the second.

SACN and EWMS cannot be ordered by “one-hybrid fitness for binding parS DNA” value: at most 0.2 for the first, at most 0.2 for the second.

LNAG and WSLK cannot be ordered by “one-hybrid fitness for binding parS DNA” value: at most 0.2 for the first, at most 0.2 for the second.

NKPV and RSQK cannot be ordered by “one-hybrid fitness for binding parS DNA” value: at most 0.2 for the first, at most 0.2 for the second.

LDRA and APGV cannot be ordered by “one-hybrid fitness for binding parS DNA” value: at most 0.2 for the first, at most 0.2 for the second.

MTVD and SKTK cannot be ordered by “one-hybrid fitness for binding parS DNA” value: at most 0.2 for the first, at most 0.2 for the second.

TRAC and RQPK cannot be ordered by “one-hybrid fitness for binding parS DNA” value: at most 0.2 for the first, at most 0.2 for the second.

FTLC and PDEW cannot be ordered by “one-hybrid fitness for binding parS DNA” value: at most 0.2 for the first, at most 0.2 for the second.

ADKN and IALR cannot be ordered by “one-hybrid fitness for binding parS DNA” value: at most 0.2 for the first, at most 0.2 for the second.

GKYN and VWNK cannot be ordered by “one-hybrid fitness for binding parS DNA” value: at most 0.2 for the first, at most 0.2 for the second.

YHKG and KKAA cannot be ordered by “one-hybrid fitness for binding parS DNA” value: at most 0.2 for the first, at most 0.2 for the second.

HRNI and GNHG cannot be ordered by “one-hybrid fitness for binding parS DNA” value: at most 0.2 for the first, at most 0.2 for the second.

First: RTSF
Second: QPHS
The “one-hybrid fitness for binding parS DNA” value of the first is higher: 0.246 for the first, at most 0.2 for the second.

CQLL and SALM cannot be ordered by “one-hybrid fitness for binding parS DNA” value: at most 0.2 for the first, at most 0.2 for the second.

AEMR and RYCK cannot be ordered by “one-hybrid fitness for binding parS DNA” value: at most 0.2 for the first, at most 0.2 for the second.

YETT and QRVF cannot be ordered by “one-hybrid fitness for binding parS DNA” value: at most 0.2 for the first, at most 0.2 for the second.

Compared with RAYM, HHMT is lower in “one-hybrid fitness for binding parS DNA” value: 0.324 for the first, at most 0.2 for the second.

AFHC and VGDK cannot be ordered by “one-hybrid fitness for binding parS DNA” value: at most 0.2 for the first, at most 0.2 for the second.

MWSW and CTWS cannot be ordered by “one-hybrid fitness for binding parS DNA” value: at most 0.2 for the first, at most 0.2 for the second.

SIKS and PTGC cannot be ordered by “one-hybrid fitness for binding parS DNA” value: at most 0.2 for the first, at most 0.2 for the second.

RRAR and HMRV cannot be ordered by “one-hybrid fitness for binding parS DNA” value: at most 0.2 for the first, at most 0.2 for the second.

TSTD and YIAG cannot be ordered by “one-hybrid fitness for binding parS DNA” value: at most 0.2 for the first, at most 0.2 for the second.

VPAF and PRAE cannot be ordered by “one-hybrid fitness for binding parS DNA” value: at most 0.2 for the first, at most 0.2 for the second.

VENP and TAAE cannot be ordered by “one-hybrid fitness for binding parS DNA” value: at most 0.2 for the first, at most 0.2 for the second.

WNLG and EQLV cannot be ordered by “one-hybrid fitness for binding parS DNA” value: at most 0.2 for the first, at most 0.2 for the second.

QYQF and DWWR cannot be ordered by “one-hybrid fitness for binding parS DNA” value: at most 0.2 for the first, at most 0.2 for the second.

LADM and RDYL cannot be ordered by “one-hybrid fitness for binding parS DNA” value: at most 0.2 for the first, at most 0.2 for the second.

PYDK and SHPD cannot be ordered by “one-hybrid fitness for binding parS DNA” value: at most 0.2 for the first, at most 0.2 for the second.

QNNC and QDPG cannot be ordered by “one-hybrid fitness for binding parS DNA” value: at most 0.2 for the first, at most 0.2 for the second.

QPQI and QNCV cannot be ordered by “one-hybrid fitness for binding parS DNA” value: at most 0.2 for the first, at most 0.2 for the second.

TLHS and QASG cannot be ordered by “one-hybrid fitness for binding parS DNA” value: at most 0.2 for the first, at most 0.2 for the second.

MFSL and HLKH cannot be ordered by “one-hybrid fitness for binding parS DNA” value: at most 0.2 for the first, at most 0.2 for the second.

SIER and QGAK cannot be ordered by “one-hybrid fitness for binding parS DNA” value: at most 0.2 for the first, at most 0.2 for the second.

YSPW and VLVI cannot be ordered by “one-hybrid fitness for binding parS DNA” value: at most 0.2 for the first, at most 0.2 for the second.

SNPS and PMPE cannot be ordered by “one-hybrid fitness for binding parS DNA” value: at most 0.2 for the first, at most 0.2 for the second.

DRCW and IWDM cannot be ordered by “one-hybrid fitness for binding parS DNA” value: at most 0.2 for the first, at most 0.2 for the second.

QRYA and GNLA cannot be ordered by “one-hybrid fitness for binding parS DNA” value: at most 0.2 for the first, at most 0.2 for the second.

GILC and SRIA cannot be ordered by “one-hybrid fitness for binding parS DNA” value: at most 0.2 for the first, at most 0.2 for the second.

AMLA and KQLV cannot be ordered by “one-hybrid fitness for binding parS DNA” value: at most 0.2 for the first, at most 0.2 for the second.

DADR and NHRR cannot be ordered by “one-hybrid fitness for binding parS DNA” value: at most 0.2 for the first, at most 0.2 for the second.

HLNR and KWRT cannot be ordered by “one-hybrid fitness for binding parS DNA” value: at most 0.2 for the first, at most 0.2 for the second.

LMRG and QMKY cannot be ordered by “one-hybrid fitness for binding parS DNA” value: at most 0.2 for the first, at most 0.2 for the second.

VANR and ANYY cannot be ordered by “one-hybrid fitness for binding parS DNA” value: at most 0.2 for the first, at most 0.2 for the second.

AQTK and CYCC cannot be ordered by “one-hybrid fitness for binding parS DNA” value: at most 0.2 for the first, at most 0.2 for the second.

WIGP and WLET cannot be ordered by “one-hybrid fitness for binding parS DNA” value: at most 0.2 for the first, at most 0.2 for the second.

ASIC and QKQC cannot be ordered by “one-hybrid fitness for binding parS DNA” value: at most 0.2 for the first, at most 0.2 for the second.

In the case of QIMR, the “one-hybrid fitness for binding parS DNA” value is reported as at most 0.2.
